The full ranking holds about 33,000 sequences; the median of “E-score (-0.5 to 0.5)” is about -0.041, and the highest 2% start at about 0.37. This is one part of the list.
Target: T1, Ecm22 (UniProt Q05958)
T1 sequence: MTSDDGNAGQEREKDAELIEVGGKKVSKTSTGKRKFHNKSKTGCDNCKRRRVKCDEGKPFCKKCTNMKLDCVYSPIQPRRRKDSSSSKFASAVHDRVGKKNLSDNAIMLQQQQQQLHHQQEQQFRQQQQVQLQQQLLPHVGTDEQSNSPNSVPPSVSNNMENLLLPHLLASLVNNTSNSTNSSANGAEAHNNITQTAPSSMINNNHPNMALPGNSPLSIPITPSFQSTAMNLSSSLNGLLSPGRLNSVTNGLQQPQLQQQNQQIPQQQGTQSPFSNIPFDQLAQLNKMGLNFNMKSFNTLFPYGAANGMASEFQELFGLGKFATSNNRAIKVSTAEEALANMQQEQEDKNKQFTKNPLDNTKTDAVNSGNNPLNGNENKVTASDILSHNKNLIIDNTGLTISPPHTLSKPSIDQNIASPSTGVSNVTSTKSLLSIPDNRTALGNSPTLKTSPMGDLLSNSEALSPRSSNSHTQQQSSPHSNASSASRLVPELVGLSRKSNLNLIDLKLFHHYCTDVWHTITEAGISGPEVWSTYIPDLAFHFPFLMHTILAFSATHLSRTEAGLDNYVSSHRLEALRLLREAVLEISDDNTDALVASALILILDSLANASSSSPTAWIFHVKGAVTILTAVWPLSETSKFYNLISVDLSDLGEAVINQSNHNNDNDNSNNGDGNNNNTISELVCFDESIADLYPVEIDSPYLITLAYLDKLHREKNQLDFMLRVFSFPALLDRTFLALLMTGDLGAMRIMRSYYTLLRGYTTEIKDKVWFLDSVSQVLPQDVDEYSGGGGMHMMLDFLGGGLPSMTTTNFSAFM
Assay: PBM E-score (8-mer binding enrichment) (E-score (-0.5 to 0.5)); higher = stronger / more preferred TF binding; most listed sequences are background and not binding sites
Settings: protein concentration: 200 nM; construct: GST-full length
Protocol: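 Universal 'all 10-mer' protein binding microarrays (Agilent AMADID 015681) probed with GST-tagged S. cerevisiae TFs (full-length or DBD) made by in vitro transcription/translation (PURExpress), about 100-200 nM. Bound TF was detected with fluorescent anti-GST. Each ungapped 8-mer (which stands for itself and its reverse complement) is scored by the PBM enrichment score (E-score), a modified Wilcoxon-Mann-Whitney statistic from -0.5 to +0.5, computed with the Universal PBM Analysis Suite. Scale: above 0.35 generally sequence-specific binding.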

| Sequence | PBM E-score |
| --- | --- |
| CCCAGTTA | -0.0924 |
| ACCGCCCG | -0.0446 |
| CGTTGGTA | 0.223 |
| ATAATATC | 0.106 |
| GACTTTGA | 0.109 |
| CCCAGTGA | -0.237 |
| AAGTCGGG | -0.0466 |
| CTCGACAC | -0.0036 |
| CTAGGGAA | -0.165 |
| CTATTGGA | -0.257 |
| CATGCTTC | -0.0537 |
| CGCGGTCC | 0.0782 |
| AAATGAAC | 0.0804 |
| GACAGATA | 0.109 |
| GTCATTAA | 0.0869 |
| CAGCTACG | 0.173 |
| GCCACGTA | 0.16 |
| GGGAAATA | -0.147 |
| CTATCTGC | -0.131 |
| CCCGCAGC | -0.0168 |
| CAACGGCA | 0.0563 |
| GGCAGTTA | -0.248 |
| GATCGCAA | 0.118 |
| AGTGATGG | -0.184 |
| CACCTGGG | -0.227 |

| Sequence | PBM E-score |
| --- | --- |
| AGCCACGA | -0.0771 |
| GAACGTCC | 0.0563 |
| AACTATGA | -0.144 |
| TAGAAAAA | -0.0164 |
| ATGGTAAC | 0.0596 |
| CCATCGAC | -0.223 |
| ATCGATAC | 0.121 |
| AGGATAAC | 0.00941 |
| AGGCCATA | -0.143 |
| ACTTAGTG | -0.133 |
| CTACGCAA | -0.0129 |
| CCTAGCAG | -0.263 |
| GTTGGTTA | 0.00321 |
| AGTTTACG | 0.312 |
| AGTCTTAT | -0.218 |
| CCCCTAGA | -0.251 |
| AGAAATCA | -0.0993 |
| CCACACAC | -0.0415 |
| AACGCGCG | 0.294 |
| CTCCGGAC | -0.00105 |
| GGTCTCGA | 0.119 |
| GACGGTCA | -0.155 |
| ACCGAGGC | 0.164 |
| GGCAGCGA | -0.165 |
| GGGATACA | -0.239 |

| Sequence | PBM E-score |
| --- | --- |
| ATGGAAAT | -0.0843 |
| AAGCACCG | -0.0461 |
| ATAGGGAT | -0.0659 |
| GCGCCTGA | -0.135 |
| CACTGGAC | -0.0354 |
| CGACGGAA | 0.159 |
| GCGAGGAC | 0.0393 |
| GTCACAAC | 0.077 |
| AGTTCATA | -0.049 |
| CTTGCTTC | -0.131 |
| CTCTGGAA | 0.047 |
| ACAACAAA | 0.135 |
| CCTCGGCA | 0.165 |
| TCCCGGGA | -0.234 |
| ACTACTTA | 0.0179 |
| GGCCAGAA | -0.171 |
| CGCTTCGA | 0.0703 |
| CAGACGAA | 0.232 |
| CCGAGATA | 0.186 |
| CGAGCAAA | 0.256 |
| AAACCGCG | -0.0681 |
| AAGGCTGA | -0.247 |
| AAATTGTG | -0.151 |
| AAGAACAC | 0.0273 |
| AGCACAAC | 0.0676 |

| Sequence | PBM E-score |
| --- | --- |
| CTGGTTTC | -0.0712 |
| ACCGAACT | 0.0668 |
| GAGAACCC | -0.121 |
| GGTCGTGA | -0.0346 |
| ATACTTTG | 0.0163 |
| TCAATGGA | -0.217 |
| CTCTTATA | 0.205 |
| AATTATCT | -0.122 |
| AGATGCAG | -0.0553 |
| CAGTGCAC | -0.176 |
| AAAAACAC | -0.0895 |
| ACCTGACC | -0.143 |
| GACCCCAC | 0.0153 |
| AGTGTGCA | -0.125 |
| ACGTTGAT | 0.0446 |
| CTGGCGGC | -0.172 |
| CAAGACGA | -0.0769 |
| GTAGCGTA | 0.244 |
| ATTCGATG | -0.0139 |
| ATCGCTCA | 0.216 |
| CATAGGTA | 0.0765 |
| ACAGCCCA | -0.0257 |
| ATTTGAGC | -0.0853 |
| CGATGCAA | 0.133 |
| CCGACCGG | 0.248 |

| Sequence | PBM E-score |
| --- | --- |
| ATGACATA | 0.0554 |
| ATTCTTCG | 0.154 |
| CCTCACAG | -0.0635 |
| GTTTGGTA | 0.248 |
| AGTTCACC | 0.0476 |
| GAGGCCAC | -0.124 |
| CGTGATAA | 0.0329 |
| AAAGCCTT | -0.0935 |
| CTGCATAA | -0.136 |
| CAATGATA | -0.138 |
| AGGCCACA | -0.296 |
| GTGGCCCA | -0.132 |
| AGGTAATA | -0.0812 |
| ATCCCTCG | 0.178 |
| CCGCGGCG | -0.0681 |
| CCAGTGAA | -0.295 |
| GACGCCTA | -0.221 |
| TCCCCAAA | -0.124 |
| CTGATCGA | -0.0346 |
| AATACAGC | -0.185 |
| CAAAAGCC | -0.273 |
| CGATTGTC | 0.0603 |
| AGGTCGTG | -0.13 |
| GAAGGTAC | 0.215 |
| ACTTCATC | -0.051 |

| Sequence | PBM E-score |
| --- | --- |
| CAGCGCAG | -0.197 |
| CACGCTGA | -0.125 |
| AAGACTCG | 0.0673 |
| CAAGACCC | -0.0416 |
| GTTCCGCA | 0.268 |
| AGGTGGAC | -0.279 |
| GAACGGTA | 0.319 |
| CCAGTACA | -0.178 |
| AGGGGTTC | -0.0469 |
| AATTGGCA | -0.069 |
| ATCTTGAC | -0.224 |
| GGTCCAGA | -0.138 |
| CGTGAATC | 0.0832 |
| ACGATGCG | 0.328 |
| AAGTAGAT | -0.105 |
| CGCTCACG | 0.0805 |
| AACGTACG | 0.378 |
| ACGTGAAT | 0.17 |
| ACTGCCTG | 0.00565 |
| CGTCTACC | -0.05 |
| GCGGCTAC | -0.0768 |
| GTGTTCGA | 0.182 |
| CGTTTTCA | 0.188 |
| ATAAAATA | -0.0887 |
| CCGCCCCG | 0.00902 |

| Sequence | PBM E-score |
| --- | --- |
| AAACGTCC | -0.0477 |
| GATTGGGA | -0.353 |
| CTCATACC | 0.0043 |
| GATGTCGC | 0.201 |
| CGCTAGTA | 0.135 |
| CTGGTGGC | -0.0478 |
| ACTTCTTG | 0.0414 |
| GCTTCACA | -0.0992 |
| AATCTCAG | -0.204 |
| ATTATGAA | -0.107 |
| AGTCGCAT | 0.201 |
| GCGAGCAC | 0.208 |
| GCTCAAAC | 0.0479 |
| GACAACAA | 0.14 |
| AGTGAAGA | -0.0895 |
| GAGTGCAC | 0.0272 |
| AATTTTCC | 0.178 |
| AGAGATAT | 0.0139 |
| AGCGGAAG | 0.0826 |
| AGCCATGA | 0.131 |
| AACATTTA | 0.0425 |
| GGGAGCCC | -0.235 |

From the supplement of paper PMC3334620
